This is one part of the list. Further columns of the screen follow, without active or inactive calls.
Legend:
Assay in all cases: Primary Screen for Target Class Profiling of Small Molecule Inhibitors of Methyltransferases
[1] = molecular target: Glycine N-methyltransferase (Homo sapiens) (UniProt Q14749); conditions: purified enzyme, MTase-Glo SAH luminescence; measured here: GNMT inhibition; at 40 µM; stronger effect = lower value
Procedure, shortened: (§1)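 Each enzyme was reacted with SAM and its substrate, with compounds tested once at 40 uM; SAH formed was read by MTase-Glo luminescence.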

[2] = molecular target: Guanidinoacetate N-methyltransferase (Homo sapiens) (UniProt Q14353); conditions: purified enzyme, MTase-Glo SAH luminescence; measured here: GAMT inhibition; at 40 µM; stronger effect = lower value
Procedure, shortened: as §1

[3] = molecular target: Histamine N-methyltransferase (Homo sapiens) (UniProt P50135); conditions: purified enzyme, MTase-Glo SAH luminescence; measured here: HNMT inhibition; at 40 µM; stronger effect = lower value
Procedure, shortened: as §1

[4] = molecular target: Nicotinamide N-methyltransferase (Homo sapiens) (UniProt P40261); conditions: purified enzyme, MTase-Glo SAH luminescence; measured here: NNMT inhibition; at 40 µM; stronger effect = lower value
Procedure, shortened: as §1

[5] = molecular target: Phenylethanolamine N-methyltransferase (Homo sapiens) (UniProt P11086); conditions: purified enzyme, MTase-Glo SAH luminescence; measured here: PNMT inhibition; at 40 µM; stronger effect = lower value
Procedure, shortened: as §1
On the % scale 0 is the no-effect control and ±100 the full control effect.

Row | SMILES | activity change, negative = inhibition [1] | activity change, negative = inhibition [2] | activity change, negative = inhibition [3] | activity change, negative = inhibition [4] | activity change, negative = inhibition [5]
1 | O=C(NCc1ccc(F)cc1)N1Cc2ccccc2-n2cccc2C1c1ccc(Cl)cc1 (stereo not given) | -0.772% | 0% | -0.982% | -2.59% | 4.3%
2 | Cc1ncc2c(n1)C[C@@H]1CC[C@H]2N1C(=O)C1CCC1 | -4.82% | -4.57% | -2.85% | -9.64% | -6.29%
3 | Cc1ccccc1NC(=O)N1Cc2ccccc2-n2cccc2C1c1cccs1 (stereo not given) | 6.68% | 0% | 1.53% | -1.94% | 4.16%
4 | CCOc1ccc(C2c3cccn3-c3ccccc3CN2C(=O)Nc2cccc(Cl)c2)cc1 (stereo not given) | -7.16% | 0% | -1.88% | -2.27% | 1.27%
5 | COC1C(O)C(C)OC(OC2C(CO)O[C@@H](O[C@@H]3CC4CCC5C(CC[C@]6(C)[C@@H](C7=CC(=O)OC7)CC[C@]56O)[C@@]4(C)[C@H](O)C3)C(O)C2O)C1O (stereo not given in full) | 0% | 6.72% | 9.58% | -5.97% | 1.66%
6 | COc1ccc(C)cc1NC(=O)N1Cc2ccccc2-n2cccc2C1c1ccc(OC)c(OC)c1 (stereo not given) | 12.7% | 1.23% | 5.72% | 2.17% | 8.44%
7 | Cc1ccccc1NC(=O)N1Cc2ccccc2-n2cccc2C1c1ccccc1Cl (stereo not given) | 6.87% | -0.961% | -3.28% | -9.04% | -1.27%
8 | COc1ccc(-c2cc([C@H]3CN4CC[C@H]3C[C@@H]4COC(=O)NC3CCCCC3)nc(C)n2)cc1 | -4.92% | -6.92% | -2.48% | -16% | 8.19%
9 | COCCCNC(=O)N1Cc2ccccc2-n2cccc2C1c1ccc(OC)c(OC)c1 (stereo not given) | 4.91% | 0% | 1.1% | -1.16% | 3.96%
10 | O=C(Nc1ccc(F)cc1)N1Cc2ccccc2-n2cccc2C1c1cccs1 (stereo not given) | 7.49% | 0.767% | -2.89% | -6.07% | -1.82%
11 | O=C(N[C@H]1N=C(c2ccccc2F)c2cccc3c2N(CC3)C1=O)c1cc2ccccc2[nH]1 | 4.16% | -10.9% | 3.73% | -25.2% | -2.08%
12 | CN1[C@@H]2CC[C@H]1CC(OC(=O)C1C=Nc3ccccc31)C2 (stereo not given in full) | -6.93% | -1.97% | -8.15% | -13.6% | -6.48%
13 | COc1ccc(CN(C(=O)[C@@H](N)Cc2c(C)cc(C(N)=O)cc2C)[C@@H](C)c2ncc(-c3ccccc3)[nH]2)cc1C(=O)O | -2.75% | 5.1% | -2.86% | -16% | -6.24%
14 | C/C=C(\C)C(=O)OC1C(C)OC(OC2C(C)OC(OC3CCC4(C)C(=CCC5C4CCC4(C)C(C(C)OC6OC(COC7OC(CO)C(O)C(O)C7O)C(O)C(O)C6O)CCC54O)C3)CC2OC)C(O)C1OC (stereo not given) | 0% | 19.8% | 10.9% | 8.92% | 6.44%
15 | O=C(Nc1cc(F)ccc1F)N1Cc2ccccc2-n2cccc2C1c1ccc(F)cc1 (stereo not given) | 3.27% | 0% | 3.56% | 1.73% | 5.96%
16 | O=C(Nc1cccc(Cl)c1)N1Cc2ccccc2-n2cccc2C1c1ccc(F)cc1 (stereo not given) | 2.72% | 0.36% | 4.09% | 5.11% | 6.35%
17 | Cc1nc(CCN)no1 | -5.57% | -11.9% | -5.59% | -9.32% | -11.4%
18 | C=CC(C)(C)c1[nH]c2c(CC=C(C)C)cc(CC=C(C)C)cc2c1C[C@@H]1NC(=O)[C@H](C)NC1=O | 0.845% | -1.34% | 6.16% | -7.84% | -0.855%
19 | Cc1ccccc1-n1c(Cn2ncc3c(N)ncnc32)nc2cccc(C)c2c1=O | -1.51% | 5.12% | 7.73% | -18.7% | 3.94%
20 | CN(C)c1ccc(C2c3cccn3-c3ccccc3CN2C(=O)Nc2cccc(Cl)c2)cc1 (stereo not given) | -5.45% | -2.87% | -11.6% | -10.7% | -6.19%
21 | COc1ccccc1NC(=O)N1Cc2ccccc2-n2cccc2C1c1ccccc1C (stereo not given) | 1.39% | 1.57% | 0.893% | -1.39% | -3.14%
22 | C#C[C@H]1CN2CC[C@H]1C[C@@H]2CNS(=O)(=O)c1cccs1 | -6.36% | -7.82% | -3.81% | -8.97% | 5.18%
23 | C[C@]12CCC3C(CC[C@H]4C[C@H](O)CC[C@]34C)C1CC[C@@H]2C(=O)CO (stereo not given in full) | -2.1% | 14.4% | 7.2% | -5.21% | 5.08%
24 | CCOC(=O)CNC(=O)N1Cc2ccccc2-n2cccc2C1CC (stereo not given) | -2.65% | 3.49% | -4.42% | -1.61% | -0.616%
25 | COc1ccc(OC)c(C(O)C(C)N)c1 (stereo not given) | 3.73% | 10.8% | 5.68% | -1.63% | 6.44%
26 | COc1ccc(C)cc1NC(=O)N1Cc2ccccc2-n2cccc2C1c1ccccc1 (stereo not given) | -3.76% | 1.07% | 0.263% | -5.92% | -0.448%
27 | Cc1ccc([C@H]2C[C@@H](O)[C@@H](O)[C@@H]2NCC(C)C)cc1 | -4.38% | -6.47% | -2.49% | -10.5% | -4.03%
28 | COC(=O)[C@]12CCCC(C)(C)C1CCc1cc(C(C)C)c(O)c(O)c12 (stereo not given in full) | 2.4% | -3.34% | 7.09% | -20.2% | -2.49%
29 | CCCCCCn1c(=O)c(C(=O)Nc2ccc(C(=O)OCCC)cc2)c(O)c2ccccc21 | -5.11% | -9.17% | 5.75% | -20.7% | -2.5%

Source: PubChem BioAssay AID1745853 (National Center for Advancing Translational Sciences (NCATS), 2022)
